Measured values reported in PubChem BioAssay AID686978 (National Center for Advancing Translational Sciences (NCATS), 2013).
“And” between values parts separate entries of the source, which are not always exact repeats. Equal entries are not always repeated. The whole screen tested about 420,000 compounds, of which about 64,000 (15%) were called active. Inconclusive results, whose numbers are uncertain, are shown with a selection of clear calls. Calls follow the shape of the dose curve; as a rule, active = well fitted inhibition curve with a large enough effect; inconclusive = small, poorly fitted or top-dose-only effect; inactive = flat fitted curve, though single readings scatter. Where the call is inconclusive, the potency comes from a doubtful curve fit.

Experiment: qHTS for Inhibitors of human tyrosyl-DNA phosphodiesterase 1 (TDP1): qHTS in cells in absence of CPT; also: nearly all actives have a fitted effect of over 55% in size
Details: DT40 Tdp1-/- hTDP1 cells, no CPT, ATP luminescence, 48 h; activity change, negative = growth inhibition: at 46.2 µM (top of the series) unless noted
Procedure, shortened: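 A cellular qHTS used chicken DT40 cells lacking endogenous Tdp1 but carrying stably transfected human TDP1. Compounds were applied without camptothecin, and cell growth kinetics were judged by ATP-dependent luminescence after ≥48 hr.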
% is scaled to controls: 0 for no effect and ±100 for the full control effect; potency is read from the fitted curve at half-maximal effect; tags tell the direction and shape of the fitted curve.

SMILES	Potency	activity change, negative = growth inhibition
O=C(OCc1ccc(Br)cc1)c1cccc(-c2nnc(-c3ccccc3)o2)c1	inconclusive: 29.1 µM [inhibitor, partial curve, poor fit]	
O=C(CSc1ncn[nH]1)Nc1ccc(Cl)c(Cl)c1	inconclusive: 14.6 µM [inhibitor, partial curve, poor fit]	
CC(=O)c1ccc(OCC(=O)NC(=O)NC2CCCC2)cc1	inconclusive: 23.1 µM [inhibitor, single point]	
O=C(Nc1nnc(C2CC2)s1)c1cc2ccccc2o1	inconclusive: 29.1 µM [inhibitor, single point]	
O=C(CNC(=S)N(CCCN1CCOCC1)Cc1cccs1)NCc1ccc(Cl)cc1	inconclusive: 29.1 µM [inhibitor, single point]	
CC(C)(C)NC(=O)C[C@H]1C[C@H](C(=O)N2CCCCC2)[C@@]2(CCc3ccccc3)c3[nH]c4ccc(Cl)cc4c3CCN2C1=O	inconclusive: 25.9 µM [inhibitor, single point]	
Cc1[nH]nc2c1C(c1ccc3c(c1)OCO3)C(C#N)=C(N)O2 (stereo not given)		inconclusive: -31.2% [inhibitor]
C=CCn1c(=O)c2c(nc3n2CCCN3CCc2ccc(OC)c(OC)c2)n(C)c1=O	inactive	
COc1cccc2c1cc1c(=O)n(CC(=O)N3CCN(c4cccc(C)c4C)CC3)nc(C)n12	inactive and inconclusive: 206 nM [inhibitor, full curve, poor fit]	
CCOc1ccccc1Nc1nc2ccccc2c2nncn12	inconclusive: 11.6 µM [inhibitor, single point]	
Cc1ccc(-c2c[n+](CC(=O)Nc3cc(=O)n(C)c(=O)n3C)c3n2CCC3)cc1	active: 14.6 µM	
O=C(NCC1CCCO1)c1ccc2c(=O)n(CC3CCCO3)c(=S)[nH]c2c1 (stereo not given)	inactive	
CC(=O)Nc1ccc(Oc2nc(C(F)(F)F)nc3ccccc23)cc1	inactive	
Nn1c(SCC(=O)Nc2cc(C(F)(F)F)ccc2Cl)nncc1=O	inconclusive: 23.1 µM [inhibitor, single point]	
CCC1(C)CC(CCN(Cc2ccco2)C(C)=O)(c2ccccc2)CCO1 (stereo not given)	inconclusive: 29.1 µM [inhibitor, partial curve, poor fit]	
CCOc1ccc(NC(=S)NCc2ccco2)cc1	inactive	
CCCCCC(O)(c1ccc(OC)cc1)C(CN1CCOCC1)c1ccccc1 (stereo not given)	active: 10.3 µM	
COC(=O)[C@@]12C[C@@H](CC(=O)N3CCSCC3)C(=O)N(Cc3ccc4c(c3)OCO4)C1=CCC(C)(C)C2	active: 14.6 µM	
O=[N+]([O-])c1ccc(Cl)c2cccnc12		inconclusive: -32% [inhibitor]
CC(C)c1c(C#N)c(N)nc(SCC(=O)c2cc3ccccc3oc2=O)c1C#N	inconclusive: 5.17 µM [inhibitor, partial curve]	
CS(=O)(=O)N1CCN(c2nc(-c3ccccc3)cs2)CC1	inconclusive: 29.1 µM [inhibitor, single point]	
CCOc1ccc(CNC(=O)c2ccc3oc(=O)n(Cc4ccccc4)c3c2)cc1	inconclusive: 29.1 µM [inhibitor, single point]	
CC(C)(C)C(=O)Nc1ccc(C(=O)OC2CCCCC2)cc1	active: 20.6 µM	

SMILES	Potency	activity change, negative = growth inhibition
CC(=O)Nc1ccc(SCC(=O)Nc2ccc(Cl)cn2)cc1	inactive	
Cc1ccc(CNC(=O)C2CCN(S(=O)(=O)N3CCCCC3)CC2)cc1	inconclusive: 29.1 µM [inhibitor, single point]	
Cc1ccc(Cn2nnc3c(=O)[nH]c(C4CCN(C(=O)Cc5ccccc5F)CC4)nc32)cc1	inconclusive: 29.1 µM [inhibitor, single point]	
CC1(C)Cc2c(sc3c2c(=N)n(Cc2ccco2)c(=O)n3Cc2ccccc2)CO1	inconclusive: 25.9 µM [inhibitor, partial curve, poor fit]	
CC(=O)c1c(C)oc2ccc(N(C(=O)Oc3ccccc3)S(=O)(=O)c3ccc(Cl)cc3)cc12	inactive	
Cc1[nH]c2ccccc2c1C(=O)CSc1ccc(F)cc1		inconclusive: -30.2% [inhibitor]
Fc1ccc(N2CCN(c3nc4ccccc4c4nc(-c5ccccc5)nn34)CC2)cc1	inactive	
COc1ccc(CC(=O)OCC(=O)N2CCN(S(=O)(=O)c3ccc(C)cc3C)CC2)cc1OC	inconclusive: 29.1 µM [inhibitor, single point]	
COc1ccc2c(c1OC)C(=O)N1c3ccccc3COC21 (stereo not given)		inconclusive: -34.5% [inhibitor]
CCN(C(=O)COC(=O)C1CCN(S(=O)(=O)c2ccc3c(c2)OCCO3)CC1)C1CCS(=O)(=O)C1 (stereo not given)	inactive	
O=C(COc1ccc(Cl)cc1Cl)Nc1ccc(CN2CCCCC2)cc1	inactive	
Cc1c(OC(C)C(=O)NCCN2CCOCC2)ccc2c(-c3ccccc3)cc(=O)oc12 (stereo not given)	inconclusive: 29.1 µM [inhibitor, single point]	
O=C1CC(=O)CC(c2ccccc2Cl)C1	inactive	
COC(=O)c1cn(C(=O)c2ccc(F)cc2)c2ccccc12	inactive	
CC1CCN(S(=O)(=O)c2ccc3c(c2)CCN3C(=O)Nc2ccccc2Br)CC1	inactive	
Cc1cc(Nc2ccccc2Cl)nc(-c2ccccc2O)n1	inconclusive: 16.4 µM [inhibitor, single point]	
Cc1ccc(S(=O)(=O)Nc2cccc(-c3ccc(N4CCC(C)CC4)nn3)c2)s1	inconclusive: 29.1 µM [inhibitor, single point]	
O=C(COC(=O)/C=C/c1cccc(Cl)c1)NCCc1ccccc1	inactive	
COc1cc(NC(=O)CSc2nc(C)cc(C)n2)cc(OC)c1OC	inconclusive: 29.1 µM [inhibitor, single point]	
Cc1ccc(C2/C(=C(\O)c3ccc4c(c3)OCCO4)C(=O)C(=O)N2CC2CCCO2)cc1 (stereo not given)	inactive	
Clc1cc(Br)ccc1OCCOCCOc1cccc2cccnc12	inconclusive: 29.1 µM [inhibitor, single point]	
CCOc1ccc(Br)cc1S(=O)(=O)Nc1ccc(N2CCOCC2)cc1	inconclusive: 9.2 µM [inhibitor, partial curve]	
